PubChem BioAssay AID488969 (Vanderbilt High Throughput Screening Facility, 2010)
In all, about 110,000 compounds were measured (“z-score”: median about -0.1, highest 2% from about 2 on). Some of the results follow. The source made the active and inactive calls.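 The calls were made as follows: active = z-score in the third read window above 3 or below -3; inactive = the rest.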

molecular target: Metabotropic glutamate receptor 8 (Rattus norvegicus) (UniProt P70579); test: rat mGluR8 modulators via GIRK flux, primary screen, cell-based, thallium flux, HTS (AID 488969); details: HEK293 rat mGluR8, GIRK (G protein-gated inwardly rectifying potassium channel) thallium flux, FluoZin2; at 10 µM; stronger effect = higher value
Chain of UniProt P70579 (P70579 whole entry, looked up): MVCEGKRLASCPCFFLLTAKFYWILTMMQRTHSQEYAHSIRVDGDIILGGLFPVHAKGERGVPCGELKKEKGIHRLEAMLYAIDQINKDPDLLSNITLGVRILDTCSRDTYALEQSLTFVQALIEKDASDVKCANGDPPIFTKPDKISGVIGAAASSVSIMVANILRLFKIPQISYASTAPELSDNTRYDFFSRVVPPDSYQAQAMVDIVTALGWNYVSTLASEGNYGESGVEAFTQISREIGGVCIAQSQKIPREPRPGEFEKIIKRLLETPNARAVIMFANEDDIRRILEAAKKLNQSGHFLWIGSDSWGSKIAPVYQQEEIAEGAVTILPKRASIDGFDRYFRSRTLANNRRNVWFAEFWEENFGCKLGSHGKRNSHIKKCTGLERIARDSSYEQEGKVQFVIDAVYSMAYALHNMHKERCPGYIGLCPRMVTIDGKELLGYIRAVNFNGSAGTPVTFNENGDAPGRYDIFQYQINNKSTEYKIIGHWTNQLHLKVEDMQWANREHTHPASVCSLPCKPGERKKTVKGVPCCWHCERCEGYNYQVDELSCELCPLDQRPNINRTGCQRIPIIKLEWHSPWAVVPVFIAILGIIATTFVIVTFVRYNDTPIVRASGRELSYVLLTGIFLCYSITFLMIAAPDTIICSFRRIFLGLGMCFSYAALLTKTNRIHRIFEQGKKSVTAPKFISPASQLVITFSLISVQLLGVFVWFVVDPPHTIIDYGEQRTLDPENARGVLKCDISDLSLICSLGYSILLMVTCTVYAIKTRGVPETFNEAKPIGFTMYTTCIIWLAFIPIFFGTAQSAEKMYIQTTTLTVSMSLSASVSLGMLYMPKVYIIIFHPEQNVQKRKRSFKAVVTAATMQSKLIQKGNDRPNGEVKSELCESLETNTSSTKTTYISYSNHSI

Row | Structure (SMILES) | z-score
1 | CCOC(=O)C1=C(N)OC(C)=C(C(=O)OCCOC)C12C(=O)Nc1ccccc12 (stereo unspecified) | 0.399
2 | O=C1CC(=O)N(c2cccc(Cl)c2)C(=O)N1 | -0.191
3 | CN(C)CCc1nc2ccccc2c(=O)n1-c1ccccc1 | -0.0106
4 | O=[N+]([O-])c1ccccc1CNCCc1ccc(F)cc1 | -0.191
5 | S=C1CN=C(c2ccccc2)c2cc(Cl)ccc2N1 | active: 4.29
6 | CC(C)CCP(=O)(O)c1ccccc1 | -0.0996
7 | CCN(CC)CCN1Cc2ccccc2C1=N | 0.26
8 | O=C(Nc1ccc(F)cc1F)c1cccnc1Oc1cccc(C(F)(F)F)c1 | -0.0465
9 | CCCC1=C(C(=O)OCC)C2(C(=O)Nc3ccc(C)cc32)C(C#N)=C(N)O1 (stereo unspecified) | 0.0382
10 | CC(C)Oc1ccc(C2C(C#N)=C(N)Oc3c2c(=O)oc2ccccc32)cc1 (stereo unspecified) | -0.191
11 | O=C(Nc1cccc(OC(=O)N2CCOCC2)c1)N1CCOCC1 | 0.335
12 | O=C(Cc1ccccc1)N1CCN(Cc2ccc([N+](=O)[O-])cc2)CC1 | -0.111
13 | CCN(CC)S(=O)(=O)c1ccc(C)c(NCC(=O)Nc2ccc(C#N)c(Cl)c2)c1 | -0.264
14 | O=c1c2ccccc2nc(-c2ccco2)n1-c1ccccc1 | 0.771
15 | CCN(CC)CCCN=Cc1c(O)n(-c2ccccc2F)c(=O)[nH]c1=O | 0.886
16 | CCOC(=O)c1cc(C(O)(C(=O)OC)C(F)(F)F)c(/N=C/N(C)C)o1 (stereo unspecified) | -0.0079
17 | CC(C)c1ccc(OCC(=O)N2CCN(C)CC2)c(Br)c1 | -0.292
18 | CC(C)NS(=O)(=O)c1ccc(OCC(=O)N2CCN(Cc3ccc4c(c3)OCO4)CC2)c(Cl)c1 | 0.0778
19 | CC(=O)c1ccc2c(c1)C1C(Cl)C(Sc3ccccc3[N+](=O)[O-])CC1C(c1ccccc1[N+](=O)[O-])N2 (stereo unspecified) | 1.22
20 | CN1CCN(c2c[nH]c(=O)[nH]c2=O)CC1 | -0.155
21 | CCN(CC)CCNC(=O)c1c(O)c2ccccc2n(Cc2ccccc2)c1=O | 0.0206
22 | OC(c1ccccc1)(c1ccccc1)C1CCNCC1 | 0.688
23 | COc1ccc(CCn2c(O)c(/C=N/NC(=O)c3ccncc3)c(=O)[nH]c2=O)cc1OC | -0.155

Row | Structure (SMILES) | z-score
24 | CC1=NOC2(C)Nc3ncnn3C(c3ccccc3)C12 (stereo unspecified) | 0.231
25 | CCOP(=O)(OCC)C(c1ccccc1)N(C)C=O (stereo unspecified) | -0.092
26 | CCCCOc1ccc(CCN)cc1Cl | 0.62
27 | CCC1CN(C)CCC1(OC(C)=O)c1ccccc1 (stereo unspecified) | 0.325
28 | CCCCN1C(=O)NC(=O)/C(=C/c2cnc(SC)nc2)C1=O | -0.221
29 | C=CCNC(=O)c1c(N)n(CCN2CCOCC2)c2nc3ccccc3nc12 | -0.367
30 | C=CC1CN2CCC1CC2c1[nH]c2ccccc2c1CCO (stereo unspecified) | -1.53
31 | CC(N)Cc1ccccc1Sc1ccc(O)cc1 (stereo unspecified) | 0.143
32 | COc1ccc(N2C(=O)CC(N3CCC(n4c(=O)[nH]c5ccccc54)CC3)C2=O)cc1 (stereo unspecified) | -0.14
33 | CCc1ccc(-n2c(O)c(/C=N/NC(=O)c3ccncc3)c(=O)[nH]c2=O)cc1 | -0.0293
34 | O=c1c2ccccc2nc(-c2ccc(Cl)cc2Cl)n1-c1ccncc1 | -0.348
35 | CCCCN1C(=O)NC(=O)C2(Cc3cc(C)ccc3N(C)C2)C1=O (stereo unspecified) | -0.417
36 | COc1ccc(CCNCc2ccc(F)cc2)cc1OC | -2.07
37 | COc1ccc(OC)c(N2C(=O)NC(=O)C(CCc3ccncc3)(CCc3ccncc3)C2=O)c1 | -0.482
38 | Cc1ccc(-c2nc3ccccc3c(=O)n2-c2ccncc2)cc1 | -0.234
39 | O=C(COc1ccccc1)N1CCN(C2CC3CCC2C3)CC1 (stereo unspecified) | 0.161
40 | CC12CCC3C(CC=C4CC(O)CCC43C)C1C/C(=C\c1ccccc1F)C2=O (stereo unspecified) | 0.264
41 | CN1CCN(Cc2ccc(Br)s2)CC1 | 0.759
42 | CCC(NC(=O)OC(C)(C)C)C(=O)Oc1cc(C)cc2oc(=O)c3c(c12)CCC3 (stereo unspecified) | 0.373
43 | CC(=NCCCN1CCOCC1)c1c(O)[nH]c(=O)[nH]c1=O | -0.225
44 | COC(=O)C(C)Oc1cc(C)cc2oc(=O)c3c(c12)CCCC3 (stereo unspecified) | -1.47
45 | O=C(c1cc2ccccc2oc1=O)N1CCC2(CC1)OCCO2 | 0.602
46 | COc1ccc(CCNC(C)CCc2ccc(OC)cc2)cc1 (stereo unspecified) | 0.803

Row | Structure (SMILES) | z-score
47 | Cc1ccc(C2=NCC(=O)N(CC(=O)N3CCCCC3)c3sc(C)c(C)c32)cc1 | 0.904
48 | COc1ccc(-c2nc3ccccc3c(=O)n2-c2nccs2)cc1 | -0.0572
49 | Cc1cccc(OP(=O)(NCc2ccccc2)Oc2cccc(C)c2)c1 | -0.0782
50 | COc1ccc(OCC(=O)N2CCN(Cc3c[nH]c4ccccc34)CC2)cc1 | 0.374
51 | CCCC(C)C1(CC)C(=O)NC(=Nc2ccccc2)NC1=O (stereo unspecified) | -0.154
52 | CCCC[N+]12CCC(CC1)C(=C(c1ccccc1)c1ccccc1)C2 | -0.0375
53 | CC1(C)N=C(c2ccccc2)[C@@H]2C(c3ccc([N+](=O)[O-])cc3)N21 (stereo partly specified) | -0.25
54 | NC1=Nc2ccccc2Oc2ccccc21 | -0.394
55 | O=C(CNC(=O)c1cccc(Cl)c1)Nc1ccc(Br)cc1C(=O)c1ccccc1 | 0.836
56 | Cc1ccc(C2NC(=S)NC(c3ccc(C)cc3)C23C(=O)NC(=O)NC3=O)cc1 (stereo unspecified) | -0.0146
57 | Cc1cccnc1-n1c(-c2ccccc2)nc2ccccc2c1=O | 0.282
58 | CCOC(=O)Cn1cc(C(=O)c2ccccc2F)c2ccccc21 | 0.231
59 | CCOC(=O)C1=C(N)OC2=C(C(=O)CCC2)C12C(=O)Nc1ccccc12 (stereo unspecified) | -0.00188
60 | COCCCn1c(-c2ccc(OC)cc2)cc(C(=O)NC2CCCCCCC2)c1C | -0.648
61 | CN(C)CCCN=Cc1c(O)n(CCc2ccc(F)cc2)c(=O)[nH]c1=O | -0.124
62 | CCN(CC)c1ccc(N=Cc2c(O)n(CCC3=CCCCC3)c(=O)[nH]c2=O)cc1 | -0.238
63 | Cc1ccc(N2CCN(CCc3ccccc3)CC2)cc1 | -0.159
64 | CC12CN3CN(C1)CC(c1ccccc1)(C3)C2=O | -0.165
65 | CCOc1c(P(=S)(N(C)C)N(C)C)c(C)nn1-c1ccccc1 | 0.0269
66 | CCOC(=O)C1SC2(C(F)(F)F)CC1(O)c1c(C)cc(C)nc1O2 (stereo unspecified) | -0.0267
67 | CN(C)c1ccc(C(=O)c2ccc(N(C)C)cc2)cc1 | -0.127
68 | CCCCn1c(O)c(C(C)=Nc2ccc(C(=O)O)cc2)c(=O)[nH]c1=O | -0.586
69 | O=C(COc1ccccc1)c1cn(Cc2ccccc2)c2ccccc12 | -0.418

Row | Structure (SMILES) | z-score
70 | O=C(NC1(C(F)(F)F)Oc2ccccc2O1)N1CCC2(CC1)OCCO2 | 0.664
71 | Cc1nn(Cc2ccccc2Cl)c(Cl)c1C(=O)OC(C(=O)NC(N)=O)C(C)C (stereo unspecified) | 0.0386
72 | COc1cc(NC(=O)CN2C3CCC2CC(O)(c2cccnc2)C3)cc(OC)c1 (stereo unspecified) | 0.0315
73 | COc1cc(C(c2c(C)[nH]n(-c3ccccc3)c2=O)c2c(C)[nH]n(-c3ccccc3)c2=O)cc(OC)c1OC | -0.358
74 | O=C(c1cccs1)c1cn(Cc2ccccc2Cl)c2ccccc12 | -0.523
75 | COC(=NC1CCCCC1)C(O)c1c[nH]c2ccccc12 (stereo unspecified) | -0.119
76 | C=CCn1c(O)c(C=NCCCOc2ccc(CC)cc2)c(=O)[nH]c1=S | 0.034
77 | O=C(Cc1ccccc1)Oc1ccc(N2C(=O)C3CCCCC3C2=O)cc1 (stereo unspecified) | 0.168
78 | CC(=O)Nc1ccccc1C(=O)OCc1ccc(C(=O)c2ccccc2)cc1 | -0.427
79 | COCCOC(=O)c1c(N)n(Cc2ccco2)c2nc3ccccc3nc12 | active: -3.61
80 | CC(=O)c1c(O)n(C)c(=S)n(-c2ccccc2)c1=O | -0.388
81 | O=c1cc(CN2CC=C(c3ccccc3)CC2)c2c(ccc3ccccc32)o1 | -0.0659
82 | CN1CCCC(C(=O)c2ccccc2)C1 (stereo unspecified) | -0.251
83 | CCCCCCN=Cc1c(O)n(C)c(=O)n(C)c1=O | -0.947
84 | O=c1[nH]c(=O)n(CCc2ccccc2)c(O)c1C=NCCN1CCNCC1 | -0.552
85 | CCN(CC)P(=O)(NC(=O)C(Cl)(Cl)Cl)N(CC)CC.[Cl-].[Cl-].[Cl-].[Nd+3] | 0.056
86 | Cn1c(O)c(C=NCCN2CCNCC2)c(=O)n(C)c1=O | -0.337
87 | COCCOC(=O)C1=C(C)OC(N)=C(C(=O)OC)C12C(=O)Nc1ccccc12 (stereo unspecified) | -0.186
88 | CN1CCN(c2nccc3c2ncn3C)CC1 | 0.514
89 | CCN(CC)c1ccc(CN2CC=C(c3ccc(F)cc3)CC2)cc1 | 0.0485
90 | Cc1nn(C)c(C)c1/C=C1/CC2C3CC=C4CC(O)CCC4(C)C3CCC2(C)C1=O (stereo unspecified) | -0.724
91 | Cc1nc2sccc2c(=O)n1-c1ccccc1Cl | 0.0438
92 | CC(=O)Nc1ccc2c(c1)CC1(C(=O)N(C)C(=O)N(C)C1=O)C1CCCN21 (stereo unspecified) | 0.535

Row | Structure (SMILES) | z-score
93 | CC1CCN(S(=O)(=O)c2ccc(NN=C(C#N)C#N)cc2)CC1 | -1.69
94 | OC1(CN2CCOCC2)C2CC3CC(C2)CC1C3 (stereo unspecified) | 0.047
95 | CSC(=Nc1ccccc1)c1c(O)n(C)c(=O)n(C)c1=O | -0.0557
96 | CN(C)C(Cc1ccccc1)C(=O)c1ccccc1 (stereo unspecified) | -0.28
97 | Cn1c(=O)cc(OCCCC(=O)N2CCC3(CC2)OCCO3)c2ccccc21 | -0.0413
98 | COc1cccc(CN2CCCCC2c2cccnc2)c1 (stereo unspecified) | -0.0952
99 | CCC(=NCCc1ccccc1)c1c(O)n(C2CCCCC2)c(=O)[nH]c1=O | -0.591
100 | O=C(Nc1ccccc1OC(=O)N1CCOCC1)N1CCOCC1 | -0.295
101 | CCNc1ccc(P(=S)(N(C)C)N(C)C)cc1 | -0.436
102 | CCN(CC)CCCOC(=O)C(OC(C)C)(c1ccccc1)c1ccccc1 | 1.71
103 | COc1ccc(/C=C2\C(=O)NC(=O)N(CCC3=CCCCC3)C2=O)c(OC)c1 | -0.377
104 | COc1ccc(OC(=O)N(C)C)c(CN(C)C)c1 | -0.00221
105 | C=CCn1c(O)c(C(CC)=NCCCO)c(=O)[nH]c1=O | 0.978
106 | CCN(CC)CCOC(=O)c1cc2cc(COC)ccc2o1 | 0.771
107 | COc1ccc(CN2CC3CC(C2)c2cccc(=O)n2C3)cc1OC (stereo unspecified) | 1.04
108 | CCOc1ccccc1N1C(=O)NC(=O)C(CCc2ccncc2)(CCc2ccncc2)C1=O | 0.0697
109 | COc1cccc(Oc2c(C)oc3cc(OC(=O)N(C)C)ccc3c2=O)c1 | -0.3
110 | COC(=O)C(O)(c1ccc(N(C)C(=O)OC(C)C)cc1)C(F)(F)F (stereo unspecified) | 0.305
111 | c1ccc(CN2CCN(Cc3ccc4c(c3)OCCO4)CC2)cc1 | -0.577
